From ChEMBL document CHEMBL4888484, “Replenishing the malaria drug discovery pipeline: Screening and hit evaluation of the MMV Hit Generation Library 1 (HGL1) against asexual blood stage Plasmodium falciparum ,using a nano luciferase reporter read-out” (2022)
In all, about 150,000 compounds went through this assay and about 540 (0.36%) showed an effect of 50% or more. The list shows a part of the results.

tested on: Plasmodium falciparum; experiment: Primary screen in NF54 nanoGlo assay, in single point, at 2uM, 72h; a lower Z score goes with more inhibition; format: functional, Erythrocyte; conditions: timepoint 72 hour

Structure (SMILES)	% Inhibition [%]	Z score
Cc1cnn(CCC(=O)N2C3CCC2Cn2c(nn(Cc4ccccc4)c2=O)C3)c1 (stereo unspecified)	-3	0.4
CC(=O)NC1CN(C(=O)N[C@@H](C)Cc2ccccc2C(F)(F)F)C1	-10	1.02
Cc1cc(S(=O)(=O)Nc2cn(C)c(=O)n(C)c2=O)sc1Cl	24	-4.75
CN(C)c1nc(N)nc(CN2CCN(CC(F)(F)F)c3ccccc32)n1	2	-0.24
Cc1nc([C@@H]2CCCCCN2C(=O)c2cc(C(C)C)nn2C)no1	-21	2.23
CCn1cc(CN2CCc3nocc3C2)cc1C#N	0	-0.03
CCN(CC)S(=O)(=O)c1cc(C(=O)N2CCc3sccc3[C@@H]2C)n(C)c1	0	-0.04
O=C([C@H]1CCOc2ccccc2C1)N1CCN(c2ncccn2)CC1	-7	1.12
Cc1ccc(-c2csc(C3CN4CCCC4CO3)n2)s1 (stereo unspecified)	-2	0.25
CCOC(=O)N1CCN(c2nc3cc4c(cc3cc2CNCCc2c[nH]c3ccccc23)CCC4)CC1	-5	0.69
C[C@H]1CC(=O)Nc2ccccc2N1C(=O)CN1C(=O)c2ccccc2C1=O	-1	0.16
CNc1nc(C(=O)N2CCc3[nH]c(-c4ccc(F)cc4F)nc3C2)cs1	-15	2.2
CC1CCC(C(C)C)c2[nH]nc(-c3ccccc3O)c21 (stereo unspecified)	3	-0.32
C[C@@H](Cc1ccc(Cl)cc1Cl)C(=O)N1CCCS1(=O)=O	9	-1.77
CCOC(=O)c1nc2ccccc2nc1N1CCCN(C(=O)COCc2ccccc2)CC1	1	-0.15
CC(CC(O)c1ccco1)NC(=O)c1ccc(Br)cn1 (stereo unspecified)	-9	0.83
CCO[C@H]1CN(C(=O)Cc2nc(C)sc2C)C[C@@H]1O	0	0.05
CCOc1cc(C(=O)N2CCC(n3cn[nH]c3=O)CC2)on1	-9	1.37
O=C(NCC1(O)CCCCC1)c1cc(COc2cccc3cccnc23)on1	-16	2.38
CCN(CC)C(=O)N(C)CC1(O)CCCC1	-1	0.25
COc1ccc(C)cc1S(=O)(=O)N1CCC[C@@]2(CCN(C)C2)C1	4	-0.86
CCOC(=O)CNC(=O)N1CCN(Cc2nc3cccnc3n2-c2cc(C)cc(C)c2)CC1	-10	1.32
CCOc1ccc(Cl)cc1CCNC(=O)N1CCC[C@](C)(OC)CC1	-3	0.28
